These are yes or no findings as the source states them, for the method shown. Some results given as binding are weak or reduced against the parent protein; the word gives no strength.
T1: Light-harvesting-like protein 3 isoform Lil3:1 (Lil3.1, At4g17600) (Arabidopsis thaliana (from the AGI locus code)) (UniProt Q9SYX1)
T1 sequence: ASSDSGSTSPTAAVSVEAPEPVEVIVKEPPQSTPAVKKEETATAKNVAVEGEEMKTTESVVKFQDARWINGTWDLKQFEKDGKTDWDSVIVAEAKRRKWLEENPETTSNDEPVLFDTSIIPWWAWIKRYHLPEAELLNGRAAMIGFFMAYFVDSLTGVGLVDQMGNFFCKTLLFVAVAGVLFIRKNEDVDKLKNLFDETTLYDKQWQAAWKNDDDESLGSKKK

T2: Light-harvesting-like protein 3 isoform Lil3:2 (Lil3.2, At5g47110) (Arabidopsis thaliana (from the AGI locus code)) (UniProt Q6NKS4)
T2 sequence: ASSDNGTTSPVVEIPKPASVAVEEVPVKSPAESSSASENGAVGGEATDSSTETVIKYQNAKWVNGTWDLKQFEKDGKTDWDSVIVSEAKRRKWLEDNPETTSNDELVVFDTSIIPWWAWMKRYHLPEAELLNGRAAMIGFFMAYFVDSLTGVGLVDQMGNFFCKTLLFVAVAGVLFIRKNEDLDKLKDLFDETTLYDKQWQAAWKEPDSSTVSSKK

T3: Chlorophyll synthase (CHS, ChlG, At3g51820, EC 2.5.1.62) (Arabidopsis thaliana (from the AGI locus code)) (UniProt Q38833)
T3 sequence: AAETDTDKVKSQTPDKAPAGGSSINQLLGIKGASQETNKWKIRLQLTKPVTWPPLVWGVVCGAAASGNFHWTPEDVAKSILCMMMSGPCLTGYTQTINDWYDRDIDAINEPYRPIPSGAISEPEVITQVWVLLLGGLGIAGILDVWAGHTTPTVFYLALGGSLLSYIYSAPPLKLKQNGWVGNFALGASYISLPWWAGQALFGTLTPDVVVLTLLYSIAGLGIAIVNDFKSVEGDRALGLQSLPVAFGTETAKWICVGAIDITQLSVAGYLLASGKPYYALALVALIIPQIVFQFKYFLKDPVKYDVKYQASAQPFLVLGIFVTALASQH

T4: Geranylgeranyl reductase (GGR, ChlP, At1g74470, EC 1.3.1.83) (Arabidopsis thaliana (from the AGI locus code)) (UniProt Q9CA67)
T4 sequence: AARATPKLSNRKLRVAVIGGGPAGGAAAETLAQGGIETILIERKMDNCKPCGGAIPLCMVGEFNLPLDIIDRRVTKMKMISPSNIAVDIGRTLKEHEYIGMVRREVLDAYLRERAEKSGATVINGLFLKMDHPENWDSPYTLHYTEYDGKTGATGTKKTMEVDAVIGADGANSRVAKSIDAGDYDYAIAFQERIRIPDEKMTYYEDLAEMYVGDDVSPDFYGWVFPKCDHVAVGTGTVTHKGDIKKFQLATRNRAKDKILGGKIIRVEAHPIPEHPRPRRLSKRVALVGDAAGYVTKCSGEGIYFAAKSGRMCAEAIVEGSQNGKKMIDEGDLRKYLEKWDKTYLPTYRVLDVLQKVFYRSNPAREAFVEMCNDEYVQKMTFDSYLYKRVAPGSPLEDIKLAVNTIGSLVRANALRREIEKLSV

B1: Chlorophyll synthase (CHS, ChlG, At3g51820, EC 2.5.1.62) (enzyme, UniProt Q38833 58-387)
chain: T3 sequence
B2: Light-harvesting-like protein 3 isoform Lil3:2 (Lil3.2, At5g47110) (protein, UniProt Q6NKS4 43-258)
chain: T2 sequence
B3: Protochlorophyllide oxidoreductase A (PORA, At5g54190) (enzyme, UniProt Q42536 70-405)
chain: QAIATSTPSVTKSSLDRKKTLRKGNVVVTGASSGLGLATAKALAETGKWHVIMACRDFLKAERAAQSAGMPKDSYTVMHLDLASLDSVRQFVDNFRRAEMPLDVLVCNAAVYQPTANQPTFTAEGFELSVGINHLGHFLLSRLLIDDLKNSDYPSKRLIIVGSITGNTNTLAGNVPPKANLGDLRGLAGGLNGLNSSAMIDGGDFVGAKAYKDSKVCNMLTMQEFHRRFHEDTGITFASLYPGCIATTGLFREHIPLFRTLFPPFQKYITKGYVSESEAGKRLAQVVADPSLTKSGVYWSWNKTSASFENQLSQEASDVEKARRVWEVSEKLVGLA
B4: Protochlorophyllide oxidoreductase B (PORB, At4g27440) (enzyme, UniProt P21218 67-401)
chain: QTAATSSPTVTKSVDGKKTLRKGNVVVTGASSGLGLATAKALAETGKWNVIMACRDFLKAERAAKSVGMPKDSYTVMHLDLASLDSVRQFVDNFRRTETPLDVLVCNAAVYFPTAKEPTYSAEGFELSVATNHLGHFLLARLLLDDLKKSDYPSKRLIIVGSITGNTNTLAGNVPPKANLGDLRGLAGGLNGLNSSAMIDGGDFDGAKAYKDSKVCNMLTMQEFHRRFHEETGVTFASLYPGCIASTGLFREHIPLFRALFPPFQKYITKGYVSETESGKRLAQVVSDPSLTKSGVYWSWNNASASFENQLSEEASDVEKARKVWEISEKLVGLA
B5: Protochlorophyllide oxidoreductase C (PORC, At1g03630) (enzyme, UniProt O48741 68-401)
chain: QTVTATPPANEASPEQKKTERKGTAVITGASSGLGLATAKALADTGKWHVIMACRNFLKAEKAARSVGMSKEDYTVMHLDLASLESVKQFVENFRRTEQPLDVLVCNAAVYQPTAKEPSFTAEGFEISVGTNHLGHFLLSRLLLDDLKKSDYPSKRMIIVGSITGNTNTLAGNVPPKANLGDLRGLASGLNGQNSSMIDGGEFDGAKAYKDSKVCNMLTMQELHRRYHEETGVTFASLYPGCIATTGLFREHIPLFRLLFPPFQKYITKGYVSEEEAGKRLAQVVSDPSLGKSGVYWSWNNNSSSFENQLSKEASDAEKAKKLWEVSEKLVGLA
B6: Geranylgeranyl reductase (GGR, ChlP, At1g74470, EC 1.3.1.83) (enzyme, UniProt Q9CA67 44-467)
chain: T4 sequence
B7: Light-harvesting-like protein 3 isoform Lil3:1 (Lil3.1, At4g17600) (protein, UniProt Q9SYX1 40-262)
chain: T1 sequence

Assays:
[1] = target: T1, Light-harvesting-like protein 3 isoform Lil3:1 (Lil3.1, At4g17600) (Arabidopsis thaliana (from the AGI locus code)); assay: two-hybrid; split ubiquitin system (DUALmembrane kit) in yeast NMY51; bait BTC-lil3:1 (Cub fusion), preys NubG fusions (PRN); growth on SD-WLAH supplied with 5 mM 3-aminotriazole; serial dilutions
[2] = target: T2, Light-harvesting-like protein 3 isoform Lil3:2 (Lil3.2, At5g47110) (Arabidopsis thaliana (from the AGI locus code)); assay: two-hybrid; split ubiquitin system (DUALmembrane kit) in yeast NMY51; baits BTC-lil3:2, BTC-GGR or BTC-CHS (Cub fusions), preys NubG fusions (PRN); growth on selective medium SD-WLAH; serial dilutions
[3] = target: T3, Chlorophyll synthase (CHS, ChlG, At3g51820, EC 2.5.1.62) (Arabidopsis thaliana (from the AGI locus code)); assay: as above
[4] = target: T4, Geranylgeranyl reductase (GGR, ChlP, At1g74470, EC 1.3.1.83) (Arabidopsis thaliana (from the AGI locus code)); assay: as above

Binder | binding [1] | binding [2] | binding [3] | binding [4]
B1 | binds | binds | binds | 
B2 |  |  | binds | no binding
B3 | binds | binds | no binding | binds
B4 | binds | binds | no binding | binds
B5 | binds | binds | no binding | binds
B6 | no binding | no binding |  | binds
B7 |  |  | binds | no binding
